# Source: PubChem BioAssay AID1347073 (National Center for Advancing Translational Sciences (NCATS), 2019)
# The campaign covered roughly 45,000 compounds. About 200 (0.44%) were called active. Not shown: some 7% with an inconclusive outcome. Calls follow the shape of the dose curve; as a rule, active = well fitted activation curve with a large enough effect; inconclusive = small, poorly fitted or top-dose-only effect; inactive = no such curve, though single readings can be large or run the other way. Some of the results follow.
# Experiment: qHTS of TDP-43 Inhibitors: NCGC Sytravon Library Screen; also: nearly all actives have a fitted effect of over 55% in size; as to growth rescue (activation): 0% is about no effect
# Conditions: yeast TDP-43 toxicity rescue, BacTiter-Glo growth, 24 h; series mostly up to 46.1 µM; growth rescue (activation): at the top concentration
# Method in brief: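 TDP-43-expressing yeast, pregrown in raffinose, seeded at OD600 0.02 in galactose medium with compound for 24 hr at 30 deg C. Growth read by BacTiter-Glo luminescence, so rescue of toxicity appears as activation.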
# Potency is read from the fitted curve at half-maximal effect.
SMILES,growth rescue (activation),Potency
CC(/C=N/NC(=O)Cc1cccs1)=C\c1ccccc1,inactive: 1.67%,
CCCN1C(=O)COc2ccc(-c3n[nH]c(=O)c4ccccc34)cc21,inactive: 15.9%,
CC(O)CNc1nc2c(c(=O)n(Cc3ccc(Cl)cc3)c(=O)n2C)n1C (configuration not stated),inactive: 11.6%,
C[N+](C)(CCOc1ccccc1)Cc1ccccc1 (tested in a mixture with another compound),inactive: 25.9%,
Cc1ccccc1OCC(=O)OCC(=O)Nc1ccc(S(N)(=O)=O)cc1,inactive: 11.4%,
COc1ccc(C(=O)Nc2cc(C)c(NC(=O)c3ccccn3)cn2)cc1,inactive: 6.04%,
CCCc1ccc(-c2cc(NC(=O)CSc3nnc(N)s3)n(-c3ccccc3)n2)cc1,inactive: 5.49%,
COc1ccc(N=C2CC(C)(C)CC(=O)/C2=C(/O)c2ccccc2)cc1,inactive: 27.9%,
O=C(Nc1ccc(-n2cccn2)cc1)C1CCN(Cc2ccccn2)CC1,inactive: -3.27%,
CCOP(=O)(c1ccc(N(C)C)cc1)C(O)c1ccc(C)cc1 (configuration not stated),inactive: 12.9%,
COc1ccc(OC(F)(F)F)cc1CC1(C)C(=O)Nc2cccc(Cl)c21 (configuration not stated),inactive: -13.2%,
CCc1nc2ccc(C(=O)Nc3cccc(NS(C)(=O)=O)c3)cn2c1N(CC)Cc1cccc(Br)c1,inactive: 1.95%,
C/C(=C\c1ccccc1)C(=O)Nc1nc2ccc([N+](=O)[O-])cc2s1,inactive: 21.5%,
COc1ccc(CNC(=O)CN(C(=O)CCC(=O)Nc2ccccn2)c2cccc(C)c2C)cc1,inactive: -15.7%,
CN(C)C(=O)c1ccc2c(c1[N+](=O)[O-])C(=O)c1ccccc1C2=O,,active: 10 µM
CCOC(=O)Cn1c(O)c(N=NC(=O)OC)c2ccccc21,inactive: 8.44%,
CCC(CC)N1CCN(C(=O)c2cccc(Cl)c2)CC1,inactive: -4.09%,
C/C(CC(=O)Nc1ccc([N+](=O)[O-])cc1)=N/NC(=O)C1C2CCCCC21 (configuration not stated),inactive: 25.5%,
COc1ccc(CNC(=O)CSC(=S)N2CCCC2)cc1,inactive: -3.37%,
CCOC(=O)C1=C(C)NC(=S)NC1c1ccc(OCC(=O)N2CCCCC2)cc1 (configuration not stated),inactive: -3.75%,
CN(C)C(CNS(=O)(=O)c1cc([N+](=O)[O-])ccc1Cl)c1ccco1 (configuration not stated),inactive: -4.74%,
Cc1ccc(CN2CCN(Cc3ccncc3)CC2CCO)o1 (configuration not stated),inactive: -11.9%,
COc1ccc(-c2csc(NC(=O)CSc3nnc(Nc4ccccc4C)s3)n2)cc1,inactive: 2.17%,
CSc1nc2ccc(NC(=O)c3ccc(=O)[nH]c3)cc2s1,inactive: -8.83%,
O=C(O)c1ccc(-c2nc(-c3ccccc3)c(-c3cccs3)[nH]2)cc1,inactive: 4.21%,
CCOc1cc2c(cc1/C=C(/C#N)c1ccc(C(=O)O)cc1)OCO2,inactive: 22.2%,

SMILES,growth rescue (activation),Potency
CCN(CC)S(=O)(=O)c1ccc(N2CCCC2)c(NS(=O)(=O)c2ccc([N+](=O)[O-])cc2)c1,inactive: 12.6%,
Cc1ccc(C(=O)NCCNC(=O)c2ccccn2)cc1,inactive: -0.352%,
COc1cccc(NC(=O)Cn2c(CCC(=O)O)ccc2-c2ccccc2)c1,inactive: 7.97%,
COc1ccccc1CC(Cc1nc2ccccc2[nH]1)c1nc2ccccc2[nH]1 (configuration not stated),inactive: 3.89%,
CN(C)c1ccc(C2(c3ccc(N(C)C)cc3)OC(=O)c3cc(N)ccc32)cc1,inactive: 0.696%,
CCOc1ccc(S(=O)(=O)NCCC(=O)OCC(=O)N2CC(=O)Nc3ccccc32)cc1,inactive: 5.3%,
Cc1ccc(CNc2ccc(N3C(=O)CCCC3=O)cc2[N+](=O)[O-])cc1,inactive: 8.95%,
O=C(NCc1cccs1)c1ccc2sc(C3=C[C@@H](O)[C@@H](O)[C@@H](CO)O3)nc2c1,inactive: -10.4%,
COc1cc([N+](=O)[O-])ccc1NC(=O)COC(=O)c1ccc(NC(N)=O)cc1,inactive: 5.41%,
O=C(Cc1ccccc1)Nc1ccc(S(=O)(=O)N2CCCC2)cc1,inactive: 15.8%,
O=c1[nH]snc1N1CCOCC1,inactive: 12.8%,
O=C(O)CCSc1nnc(SCC(=O)NC2CCS(=O)(=O)C2)s1 (configuration not stated),inactive: 17.1%,
COc1cc(NC(=S)Nc2cccnc2)cc(OC)c1,inactive: 11.3%,
Cc1ccc(CSC2=Nc3ccccc3C3=NC(CC(=O)NC4CCCCC4)C(=O)N23)cc1 (configuration not stated),inactive: 7.28%,
CCNC(=O)C1CCCN(C(=O)c2ccccc2OC(F)(F)F)CC1 (configuration not stated),inactive: -7.81%,
Nc1ccc(S(=O)(=O)Nc2nccc(/C=C/c3ccc([N+](=O)[O-])cc3)n2)cc1,inactive: -6.41%,
Cc1c(C(=O)N2CCCCC2)oc2ccccc12,inactive: 15.9%,
COc1ccccc1N1CCN(C(=O)c2cc(-c3ccc(F)cc3)on2)CC1,inactive: 10.7%,
CS(=O)(=O)c1ccccc1C(=O)N1CCN(Cc2ccccc2)CC1,inactive: -16.2%,
CCN(CC)C(=O)c1c(-c2ccccc2)oc2ccc(O)cc12,inactive: 16.1%,
CS(=O)(=O)N1CCN(c2ccc(C(=O)N3CCOCC3)cc2[N+](=O)[O-])CC1,inactive: -0.173%,
CSc1ncccc1C(=O)N1CCN(S(=O)(=O)c2cc(C)ccc2C)CC1,inactive: 8.28%,
COc1ccc(N2CCN(C(=O)[C@H](C)N3C(=O)C4CC=CCC4C3=O)CC2)cc1 (some centres not stated),inactive: 4.66%,
COc1ccc(-c2ccc(CCC(=O)O)n2CC(=O)Nc2ccccc2C)cc1,inactive: -3.12%,
COc1cc(C=NNC(=O)c2ccc(NS(=O)(=O)c3cccs3)cc2)cc(Br)c1O,inactive: 4.01%,
COc1ccc(N/C=C/c2nc(SC)nnc2C)cc1,inactive: 2.66%,
